Experimental data from the supplement of paper PMC3334620.
Over roughly 33,000 sequences, “E-score (-0.5 to 0.5)” has its median near -0.04; the highest 2% begin near 0.36. This is one part of the list.

molecular target: T1, Hmlalpha2 (UniProt P0CY09); test: PBM E-score (8-mer binding enrichment) (E-score (-0.5 to 0.5)); higher = stronger / more preferred TF binding; most listed sequences are background and not binding sites; conditions: protein concentration: 200 nM; construct: GST-full length
T1 sequence: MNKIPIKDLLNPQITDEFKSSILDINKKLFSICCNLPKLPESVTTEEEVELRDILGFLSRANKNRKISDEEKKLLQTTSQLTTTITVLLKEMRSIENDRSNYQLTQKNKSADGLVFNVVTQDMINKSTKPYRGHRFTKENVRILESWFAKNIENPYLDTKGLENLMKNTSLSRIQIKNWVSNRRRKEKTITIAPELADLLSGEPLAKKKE
Procedure: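 Universal 'all 10-mer' protein binding microarrays (Agilent AMADID 015681) probed with GST-tagged S. cerevisiae TFs (full-length or DBD) made by in vitro transcription/translation (PURExpress), about 100-200 nM. Bound TF was detected with fluorescent anti-GST. Each ungapped 8-mer (which stands for itself and its reverse complement) is scored by the PBM enrichment score (E-score), a modified Wilcoxon-Mann-Whitney statistic from -0.5 to +0.5, computed with the Universal PBM Analysis Suite. Scale: above 0.35 generally sequence-specific binding.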

Row | Sequence | PBM E-score
1 | CTTATGCC | -0.135
2 | CCGGCACC | -0.24
3 | TACAAACA | 0.314
4 | AACCCTGA | -0.0189
5 | TTGCCAAA | -0.11
6 | CCCTCGCC | -0.357
7 | CATGCCTA | -0.234
8 | ATAGATTG | 0.041
9 | CGCCAAAG | -0.306
10 | GAGCCACA | -0.238
11 | ACGACTGC | -0.0517
12 | AAACTCAC | 0.0451
13 | CTGTGCTA | -0.00224
14 | CTATCGCA | -0.0573
15 | GCCTTGTA | 0.33
16 | CCCAATCA | -0.113
17 | CGTAGGTA | 0.0458
18 | ATGTGACA | 0.15
19 | CAAGTGCG | -0.0741
20 | AGATCTCC | -0.287
21 | AGGCCGGG | -0.193
22 | ATACCGGA | -0.0288
23 | CGCAGAAG | -0.0475
24 | GGGTCGAA | -0.276
25 | AGAACTAG | -0.104

Row | Sequence | PBM E-score
26 | TCGCGCGA | -0.0296
27 | TAACGTTA | 0.268
28 | ATTGATCC | -0.048
29 | AGATCCAA | -0.0165
30 | CGAATACC | -0.0493
31 | GACGTCGA | 0.0909
32 | ACTGTCGA | 0.0139
33 | ACCAGTGG | -0.0748
34 | ACAGACAG | -0.0215
35 | GGCCTAAA | -0.148
36 | ATCCTTTC | 0.00253
37 | ACAGTGGT | -0.14
38 | CCGATCTA | -0.0562
39 | GGCGGGGA | -0.212
40 | CGAAACGC | -0.104
41 | AGTAGCGG | -0.155
42 | GAATGCCA | -0.207
43 | ACACGCGT | 0.43
44 | GCGTCAAA | 0.148
45 | CGGTTACC | -0.169
46 | AGTTGCTC | -0.168
47 | GCAACGCC | 0.0517
48 | ATATTAAG | 0.131
49 | CACTGGTC | -0.109
50 | AACGGCCA | -0.0115

Row | Sequence | PBM E-score
51 | AAAACTTT | 0.0466
52 | AAATGACC | -0.147
53 | AGCTGGGA | -0.165
54 | CACAGCCA | 0.139
55 | AGGCCGTC | -0.187
56 | CGCCCAGC | -0.189
57 | GAGTACCC | -0.19
58 | GCGTAGGA | -0.144
59 | AGCCATCC | -0.153
60 | CTGAACAC | 0.158
61 | AGGTATAG | -0.145
62 | CACGACCA | 0.127
63 | CTACCTGC | -0.087
64 | ATCCGAGA | -0.239
65 | GCTATGAA | 0.0788
66 | GAAACTAA | 0.0477
67 | AACACAAT | 0.373
68 | GTCCAGTA | -0.054
69 | ATTGTACG | 0.123
70 | ATCGGGTG | -0.0806
71 | CTGCCCCA | -0.248
72 | ATACACGC | 0.449
73 | CTGGCGTA | -0.0219
74 | CTATGGTC | -0.265
75 | AAGGTATC | -0.224

Row | Sequence | PBM E-score
76 | AATCCGCA | -0.211
77 | AATGTGCT | 0.0332
78 | TCCGGTCA | -0.0667
79 | CTGGCATC | -0.19
80 | ACGCTTTC | -0.0168
81 | AGGGCCTA | -0.182
82 | AAGGGAGA | 0.0111
83 | CAAACAAA | 0.0667
84 | TGGCTACA | 0.0258
85 | CACCTTGC | 0.0122
86 | GCTGCATA | 0.133
87 | CTCATCAC | 0.00381
88 | GATCATGA | 0.0598
89 | ACCCCGAT | -0.328
90 | AGCTTTCA | 0.099
91 | AATGGCCA | -0.165
92 | CAAACAGC | 2e-05
93 | AGCGTCGA | 0.176
94 | AAGTGCTA | 0.0881
95 | CGACGGTC | -0.112
96 | GGTTGGAC | -0.174
97 | TCCACTAA | -0.0128
98 | ACTCCTAA | -0.0597
99 | CTGGGTAA | 0.125
100 | CGCCCGAG | -0.112

Row | Sequence | PBM E-score
101 | ATAACATA | 0.437
102 | ACTGCGTA | 0.244
103 | AAGGGCCA | -0.0263
104 | CGCGCAAA | 0.136
105 | GGTGCGAA | -0.0789
106 | ATAGAGTA | 0.117
107 | TCGACACA | 0.318
108 | GAACACGA | 0.287
109 | ACAAGCCG | 0.146
110 | AAGATAGT | 0.0103
111 | GGTTCAAC | -0.0347
112 | ATCTTATA | 0.00606
113 | ATTGACCG | 0.0885
114 | CCCAGATA | -0.316
115 | ACAGCCGC | -0.252
116 | CAACGCGG | 0.176
117 | ACCATTCA | 0.191
118 | ACTTTGTC | 0.0436
119 | CCAGCTCA | -0.18
120 | GGGGCGTA | -0.0616
121 | CCGGCTGA | -0.141
122 | CACTACCG | -0.241
123 | TCGTACAA | 0.212
124 | AAGAAAAG | -0.024
125 | CCAAGCCA | -0.137

Row | Sequence | PBM E-score
126 | GAAGGCCA | -0.38
127 | AATAACAA | 0.267
128 | CACTACTG | -0.177
129 | CGATAAGA | 0.00859
130 | ATAATTGC | 0.121
131 | CAACGTAA | 0.29
132 | CGTCTGAG | -0.0744
133 | GGTGGCAA | -0.19
134 | AGAGTTGG | -0.131
135 | CAAGGTAC | 0.104
136 | CATGTCTC | 0.117
137 | CGTTCATC | 0.0714
138 | ATACGTAC | 0.242
139 | AAGAAGTG | 0.0961
140 | ATTACAGA | 0.333
141 | CCAAATTC | -0.06
142 | AGGGGACA | -0.0998
143 | CCCTGGAG | -0.324
144 | ATTGTAGG | 0.23
145 | CTATATTA | 0.25
146 | CCCATAGC | -0.283
147 | ATGACCCA | 0.0186
148 | CCTACCTC | -0.361
149 | CCCCCGTA | -0.247
150 | GTCGGGAA | 0.00521

Row | Sequence | PBM E-score
151 | CGGGCAAG | -0.192
152 | TACTTCAA | 0.111
153 | CTACTGAA | -0.00131
154 | CCATATTA | 0.063
155 | TCCATGGA | 0.076
156 | GAGATAGA | -0.0968
157 | GGCCTCTA | -0.171
158 | TAGTGTAA | 0.323
159 | ATCAAGTG | -0.0416
160 | AAATGCAC | -0.0775
161 | TATGCCCA | -0.227
162 | CCCATGTA | 0.447
163 | CGCGAGAC | 0.113
164 | AGGCATGC | 0.0654
165 | AAACCCGA | 0.0002
166 | ACCTGCTG | 0.0134
167 | AAGGAAGA | -0.203
168 | AGGAGTTC | -0.145
169 | AACTTCAG | -0.148
170 | GGTTGAAA | -0.0197
171 | AAGTGTAC | 0.0982
172 | CGCAAACC | 0.0302
